Measurements from PMC8497992, “Structural and functional characterization explains loss of dNTPase activity of the cancer-specific R366C/H mutant SAMHD1 proteins” (The Journal of Biological Chemistry, 2021).

B1: SAMHD1 HD domain ([…]) R366C (domain or fragment)
chain: not shown
notes: SAMHD1, HD domain, […], with the cancer-associated mutation R366C (colon cancer and leukemia); Made by QuikChange on pet14b-SAMHD1; also called R366C/H mutants; source: E. coli Rosetta DE3, purified (HisTrap FF, Superdex 200)
B2: SAMHD1 HD domain ([…]) R366H (domain or fragment)
chain: not shown
notes: SAMHD1, HD domain, […], with the cancer-associated mutation R366H (colon cancer); Made by QuikChange on pet14b-SAMHD1; also called R366C/H mutants; source: E. coli Rosetta DE3, purified (HisTrap FF, Superdex 200)

Target: the molecule itself
Experiment: cross-linking; formaldehyde cross-linking of 10 uM HD domain protein with 2 mM dGTP (activator); 50 mM Hepes 7.4, 20% glycerol, 150 mM KCl, 1 mM beta-mercaptoethanol, 250 mM KCl, 25 mM MgCl2; equal amount of 2% formaldehyde, 37 °C 15 min; SDS-PAGE; monomer to tetramer

Row | Protein | stoichiometry N
1 | B1 | 4
2 | B2 | 4
